The supplement of paper PMC8728848
The list shows a part of the results.

Legend:
Test in all cases: glycan array binding signal (z-score within array); higher = stronger binding
Conditions in all cases: glycan notation: IUPAC condensed, linker removed
[1] = molecular target: GlcNAc(b1-3)Gal(b1-3)GalNAc
Procedure, shortened: (§1)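 Negative Z-scores can be read as non-binding. The Z-score is calculated within each array and then averaged across arrays of one protein sequence at different concentrations or buffers and across linkers. Arrays, 3228 in all, were curated from the Consortium for Functional Glycomics database and kept only where the protein sequence was available.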

[2] = molecular target: GlcNAc(b1-3)Gal(b1-4)Glc
Procedure, shortened: as §1

[3] = molecular target: GlcNAc(b1-3)Gal(b1-4)GlcNAc
Procedure, shortened: as §1

[4] = molecular target: GlcNAc(b1-3)Gal(b1-4)GlcNAc(b1-2)Man(a1-3)[GlcNAc(b1-3)Gal(b1-4)GlcNAc(b1-2)Man(a1-6)]Man(b1-4)GlcNAc(b1-4)GlcNAc
Procedure, shortened: as §1

[5] = molecular target: GlcNAc(b1-3)Gal(b1-4)GlcNAc(b1-2)Man(a1-3)[GlcNAc(b1-3)Gal(b1-4)GlcNAc(b1-2)Man(a1-6)]Man(b1-4)GlcNAc(b1-4)[Fuc(a1-6)]GlcNAc
Procedure, shortened: as §1

[6] = molecular target: GlcNAc(b1-3)Gal(b1-4)GlcNAc(b1-2)[GlcNAc(b1-3)Gal(b1-4)GlcNAc(b1-6)]Man(a1-6)[GlcNAc(b1-3)Gal(b1-4)GlcNAc(b1-2)Man(a1-3)]Man(b1-4)GlcNAc(b1-4)GlcNAc
Procedure, shortened: as §1

[7] = molecular target: GlcNAc(b1-3)Gal(b1-4)GlcNAc(b1-3)Gal(b1-4)GlcNAc
Procedure, shortened: as §1

[8] = molecular target: GlcNAc(b1-3)Gal(b1-4)GlcNAc(b1-3)Gal(b1-4)GlcNAc(b1-2)Man(a1-3)[GlcNAc(b1-3)Gal(b1-4)GlcNAc(b1-3)Gal(b1-4)GlcNAc(b1-2)Man(a1-6)]Man(b1-4)GlcNAc(b1-4)GlcNAc
Procedure, shortened: as §1

[9] = molecular target: GlcNAc(b1-3)Gal(b1-4)GlcNAc(b1-3)Gal(b1-4)GlcNAc(b1-2)Man(a1-3)[GlcNAc(b1-3)Gal(b1-4)GlcNAc(b1-3)Gal(b1-4)GlcNAc(b1-2)Man(a1-6)]Man(b1-4)GlcNAc(b1-4)[Fuc(a1-6)]GlcNAc
Procedure, shortened: as §1

[10] = molecular target: GlcNAc(b1-3)Gal(b1-4)GlcNAc(b1-3)Gal(b1-4)GlcNAc(b1-2)[GlcNAc(b1-3)Gal(b1-4)GlcNAc(b1-3)Gal(b1-4)GlcNAc(b1-6)]Man(a1-6)[GlcNAc(b1-3)Gal(b1-4)GlcNAc(b1-3)Gal(b1-4)GlcNAc(b1-2)Man(a1-3)]Man(b1-4)GlcNAc(b1-4)[Fuc(a1-6)]GlcNAc
Procedure, shortened: as §1

[11] = molecular target: GlcNAc(b1-3)Gal(b1-4)GlcNAc(b1-3)Gal(b1-4)GlcNAc(b1-3)Gal(b1-4)GlcNAc(b1-2)Man(a1-3)[GlcNAc(b1-3)Gal(b1-4)GlcNAc(b1-3)Gal(b1-4)GlcNAc(b1-3)Gal(b1-4)GlcNAc(b1-2)Man(a1-6)]Man(b1-4)GlcNAc(b1-4)GlcNAc
Procedure, shortened: as §1

[12] = molecular target: GlcNAc(b1-3)Gal(b1-4)GlcNAc(b1-3)Gal(b1-4)GlcNAc(b1-3)Gal(b1-4)GlcNAc(b1-2)Man(a1-3)[GlcNAc(b1-3)Gal(b1-4)GlcNAc(b1-3)Gal(b1-4)GlcNAc(b1-3)Gal(b1-4)GlcNAc(b1-2)Man(a1-6)]Man(b1-4)GlcNAc(b1-4)[Fuc(a1-6)]GlcNAc
Procedure, shortened: as §1

[13] = molecular target: GlcNAc(b1-3)Gal(b1-4)GlcNAc(b1-3)Gal(b1-4)GlcNAc(b1-3)Gal(b1-4)GlcNAc(b1-2)[GlcNAc(b1-3)Gal(b1-4)GlcNAc(b1-3)Gal(b1-4)GlcNAc(b1-3)Gal(b1-4)GlcNAc(b1-6)]Man(a1-6)[GlcNAc(b1-3)Gal(b1-4)GlcNAc(b1-3)Gal(b1-4)GlcNAc(b1-3)Gal(b1-4)GlcNAc(b1-2)Man(a1-3)]Man(b1-4)GlcNAc(b1-4)[Fuc(a1-6)]GlcNAc
Procedure, shortened: as §1

[14] = molecular target: GlcNAc(b1-3)Gal(b1-4)GlcNAc(b1-3)Gal(b1-4)GlcNAc(b1-3)Gal(b1-4)GlcNAc(b1-3)Gal(b1-4)GlcNAc(b1-2)Man(a1-3)[GlcNAc(b1-3)Gal(b1-4)GlcNAc(b1-3)Gal(b1-4)GlcNAc(b1-3)Gal(b1-4)GlcNAc(b1-3)Gal(b1-4)GlcNAc(b1-2)Man(a1-6)]Man(b1-4)GlcNAc(b1-4)GlcNAc
Procedure, shortened: as §1

[15] = molecular target: GlcNAc(b1-3)Gal(b1-4)GlcNAc(b1-3)Gal(b1-4)GlcNAc(b1-3)Gal(b1-4)GlcNAc(b1-3)Gal(b1-4)GlcNAc(b1-2)Man(a1-3)[GlcNAc(b1-3)Gal(b1-4)GlcNAc(b1-3)Gal(b1-4)GlcNAc(b1-3)Gal(b1-4)GlcNAc(b1-3)Gal(b1-4)GlcNAc(b1-2)Man(a1-6)]Man(b1-4)GlcNAc(b1-4)[Fuc(a1-6)]GlcNAc
Procedure, shortened: as §1

[16] = molecular target: GlcNAc(b1-3)Gal(b1-4)GlcNAc(b1-3)Gal(b1-4)GlcNAc(b1-3)Gal(b1-4)GlcNAc(b1-3)Gal(b1-4)GlcNAc(b1-2)[GlcNAc(b1-3)Gal(b1-4)GlcNAc(b1-3)Gal(b1-4)GlcNAc(b1-3)Gal(b1-4)GlcNAc(b1-3)Gal(b1-4)GlcNAc(b1-6)]Man(a1-6)[GlcNAc(b1-3)Gal(b1-4)GlcNAc(b1-3)Gal(b1-4)GlcNAc(b1-3)Gal(b1-4)GlcNAc(b1-3)Gal(b1-4)GlcNAc(b1-2)Man(a1-3)]Man(b1-4)GlcNAc(b1-4)[Fuc(a1-6)]GlcNAc
Procedure, shortened: as §1

[17] = molecular target: GlcNAc(b1-3)Gal(b1-4)GlcNAc(b1-3)Gal(b1-4)GlcNAc(b1-3)GalNAc
Procedure, shortened: as §1

[18] = molecular target: GlcNAc(b1-3)Gal(b1-4)GlcNAc(b1-3)GalNAc
Procedure, shortened: as §1

[19] = molecular target: GlcNAc(b1-3)Gal(b1-4)GlcNAc(b1-3)[GlcNAc(b1-3)Gal(b1-4)GlcNAc(b1-3)]GalNAc
Procedure, shortened: as §1

[20] = molecular target: GlcNAc(b1-3)Gal(b1-4)GlcNAc(b1-6)[Gal(b1-3)]GalNAc
Procedure, shortened: as §1

[21] = molecular target: GlcNAc(b1-3)Gal(b1-4)GlcNAc(b1-6)[GlcNAc(b1-3)Gal(b1-3)]GalNAc
Procedure, shortened: as §1

[22] = molecular target: GlcNAc(b1-3)Gal(b1-4)GlcNAc(b1-6)[GlcNAc(b1-3)]Gal(b1-4)GlcNAc
Procedure, shortened: as §1

[23] = molecular target: GlcNAc(b1-3)GalNAc
Procedure, shortened: as §1

[24] = molecular target: GlcNAc(b1-3)Man
Procedure, shortened: as §1

[25] = molecular target: GlcNAc(b1-3)[GlcNAc(b1-4)][GlcNAc(b1-6)]GlcNAc
Procedure, shortened: as §1

[26] = molecular target: GlcNAc(b1-3)[GlcNAc(b1-6)]Gal(b1-4)GlcNAc
Procedure, shortened: as §1

[27] = molecular target: GlcNAc(b1-3)[GlcNAc(b1-6)]GalNAc
Procedure, shortened: as §1

[28] = molecular target: GlcNAc(b1-4)Gal(b1-4)GlcNAc
Procedure, shortened: as §1

[29] = molecular target: GlcNAc(b1-4)GlcNAc
Procedure, shortened: as §1

[30] = molecular target: GlcNAc(b1-4)GlcNAc(b1-4)GlcNAc
Procedure, shortened: as §1

[31] = molecular target: GlcNAc(b1-4)GlcNAc(b1-4)GlcNAc(b1-4)GlcNAc(b1-4)GlcNAc
Procedure, shortened: as §1

[32] = molecular target: GlcNAc(b1-4)GlcNAc(b1-4)GlcNAc(b1-4)GlcNAc(b1-4)GlcNAc(b1-4)GlcNAc
Procedure, shortened: as §1

[33] = molecular target: GlcNAc(b1-4)[GlcNAc(b1-6)]GalNAc
Procedure, shortened: as §1

[34] = molecular target: GlcNAc(b1-6)Gal(b1-4)GlcNAc
Procedure, shortened: as §1

[35] = molecular target: GlcNAc(b1-6)GalNAc
Procedure, shortened: as §1

[36] = molecular target: GlcNAc6S(b1-3)Gal(b1-4)GlcNAc
Procedure, shortened: as §1

[37] = molecular target: Kdn(a2-3)Gal(b1-3)GalNAc
Procedure, shortened: as §1

B1: PkBDPgamma (Plasmodium knowlesi) (protein)
chain: SAINQIFLQNNVMDKCNDKRKRGERDWDCPTEKDVCIPDRRYQLCMMEITNLVDTDTHFHSDIIFRKSYSRRRLIYDVGGRGDLLLKKYNNVYSEDLCKDIKWSLQDFGDIIMGTDMEGIGYSLVVQNNLRSIFGTGTSAELDRKKWWNDHKKDIWKAMILSVKEKNRYSAWNCKEDVQIKVEPQIYRWIREWGRDYMSEFREQRRKLNEKCEDKLYYSTMLICTLPPCNNACKSYDEWITGKKKQWDVLSTKFSSVKKAQKIETENIARAYDILKQELNGFNEVTFENEINKRDKLYNYFCVCIVQEARKNTQENVKNVGSGVESKAPSSNPINEAVKSSSGEGKVQEDSAHRSVNEGEGKSSTNEADPGSQPGAAASGGGSGGGTGGGVDLAPQMLRELQETNAALQDVRELLRQQVKEITFLKNTVMECDACGGPLDRNLPPLAPLGPTGGWSHPQFEK
Question: For B1, which “glycan array binding signal (z-score)” value [1] is on record?
Answer: Its value is -0.239.

Question: What about the “glycan array binding signal (z-score)” value [2] of the same binder?
Answer: Its value is 0.064.

Question: And the “glycan array binding signal (z-score)” value [3]?
Answer: Its value is -0.259.

Question: What about the “glycan array binding signal (z-score)” value [4] of the same binder?
Answer: The value was 0.013.

Question: What about the “glycan array binding signal (z-score)” value [5] of the same binder?
Answer: Its value is 0.242.

Question: And the “glycan array binding signal (z-score)” value [6]?
Answer: The value was 0.325.

Question: And the “glycan array binding signal (z-score)” value [7]?
Answer: The value was -0.185.

Question: And the “glycan array binding signal (z-score)” value [8]?
Answer: The value was -0.087.

Question: What about the “glycan array binding signal (z-score)” value [9] of the same binder?
Answer: The value was 0.811.

Question: And the “glycan array binding signal (z-score)” value [10]?
Answer: Its value is 0.014.

Question: And the “glycan array binding signal (z-score)” value [11]?
Answer: Its value is 0.518.

Question: And the “glycan array binding signal (z-score)” value [12]?
Answer: The value was 0.128.

Question: And the “glycan array binding signal (z-score)” value [13]?
Answer: Its value is -0.196.

Question: And the “glycan array binding signal (z-score)” value [14]?
Answer: The value was 0.208.

Question: And the “glycan array binding signal (z-score)” value [15]?
Answer: Its value is -0.009.

Question: And the “glycan array binding signal (z-score)” value [16]?
Answer: The value was 2.27.

Question: What about the “glycan array binding signal (z-score)” value [17] of the same binder?
Answer: Its value is -0.202.

Question: And the “glycan array binding signal (z-score)” value [18]?
Answer: Its value is -0.025.

Question: What about the “glycan array binding signal (z-score)” value [19] of the same binder?
Answer: Its value is 0.295.

Question: And the “glycan array binding signal (z-score)” value [20]?
Answer: Its value is 0.103.

Question: What about the “glycan array binding signal (z-score)” value [21] of the same binder?
Answer: Its value is 0.068.

Question: What about the “glycan array binding signal (z-score)” value [22] of the same binder?
Answer: Its value is -0.12.

Question: What about the “glycan array binding signal (z-score)” value [23] of the same binder?
Answer: Its value is -0.356.

Question: And the “glycan array binding signal (z-score)” value [24]?
Answer: The value was -0.084.

Question: And the “glycan array binding signal (z-score)” value [25]?
Answer: Its value is -0.697.

Question: And the “glycan array binding signal (z-score)” value [26]?
Answer: Its value is -0.061.

Question: And the “glycan array binding signal (z-score)” value [27]?
Answer: Its value is -0.331.

Question: What about the “glycan array binding signal (z-score)” value [28] of the same binder?
Answer: The value was -0.134.

Question: And the “glycan array binding signal (z-score)” value [29]?
Answer: Its value is 0.577.

Question: What about the “glycan array binding signal (z-score)” value [30] of the same binder?
Answer: Its value is -0.565.

Question: And the “glycan array binding signal (z-score)” value [31]?
Answer: The value was -0.214.

Question: What about the “glycan array binding signal (z-score)” value [32] of the same binder?
Answer: Its value is -0.371.

Question: And the “glycan array binding signal (z-score)” value [33]?
Answer: The value was 0.123.

Question: What about the “glycan array binding signal (z-score)” value [34] of the same binder?
Answer: Its value is 0.306.

Question: What about the “glycan array binding signal (z-score)” value [35] of the same binder?
Answer: Its value is 0.044.

Question: What about the “glycan array binding signal (z-score)” value [36] of the same binder?
Answer: Its value is 0.104.

Question: And the “glycan array binding signal (z-score)” value [37]?
Answer: Its value is 0.008.
